About 11,000 (3.5%) of roughly 310,000 compounds were called active. Inconclusive results, whose numbers are uncertain, are shown with a selection of clear calls. The call rests on the fitted dose curve; in most records, active means well fitted inhibition curve with a large enough effect; inconclusive means small, poorly fitted or top-dose-only effect, or effect the other way; inactive means flat fitted curve, though single readings scatter. No potency is given beside an inconclusive call; the fits are too rough.
test: VP16 counterscreen qHTS for inhibitors of ROR gamma transcriptional activity; settings: Drosophila S2 Gal4-VP16 UAS-luciferase, luminescence, 20 h; activity, negative = inhibition: at 53.6 µM (top of the series);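 further: Gal4-VP16 expression switched on by copper sulfate through the metallothionein promoter; nearly all actives have a fitted effect of over 50% in size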
On the % scale 0 is the no-effect control and ±100 the full control effect; potency means the concentration at half of the fitted maximal effect; tags describe the fitted curve by direction and shape.

Row | SMILES | activity, negative = inhibition | Potency
1 | Cc1cc(N2CCCCC2)nc(-c2ccc(Br)cc2)n1 | inactive: -3.49% | –
2 | CCOc1cc(/C=C2\C(=O)N(c3cccc(C(F)(F)F)c3)C(=O)c3ccccc32)ccc1O | – | inconclusive [inhibitor, single point]
3 | COCCCNC(=S)Nc1cccc(SC)c1 | – | active: 11.2 µM
4 | CCCCOC(=O)/C=C/c1ccc(OC(=O)OC)c(OC(=O)OC)c1 | – | inconclusive [activator, single point]
5 | CCOC(=O)c1c(C)nc2sc3c(=O)n(-c4ccc(C(C)=O)cc4)nnc3c2c1-c1ccc(Cl)cc1 | inactive: 4.79% | –
6 | O=C1CCCN1CCCNC(=S)Nc1cccc2ccccc12 | inactive: 2.56% | –
7 | O=C(Nc1ccc(S(=O)(=O)N2CCOCC2)cc1)c1cc(S(=O)(=O)N2CCOCC2)ccc1Cl | – | inconclusive [inhibitor, single point]
8 | COC(=O)c1cc2ccsc2n1CC(=O)Nc1cc(Cl)ccc1OC | – | inconclusive [inhibitor, single point]
9 | CCC(C)C1NC(=S)N(C2CCCCC2)C1=O (stereo not drawn) | – | active: 11.2 µM
10 | CN(CCCNC(=O)c1cc2c(Cl)nc3ccccc3c2s1)Cc1ccccc1 | – | active: 11.2 µM
11 | Oc1c(N=NC(=S)Nc2ccccc2F)c2ccccc2n1Cc1cccc(Cl)c1 | – | active: 3.55 µM
12 | CC1CC(=O)N(CC(=O)Nc2ccccc2F)c2ccccc2S1(=O)=O (stereo not drawn) | inactive: 4.88% | –
13 | Nc1nc(Nc2ccccc2)nc2c1ncn2[C@@H]1O[C@@H](CO)[C@H](O)[C@H]1O | – | inconclusive [inhibitor, partial curve, poor fit]
14 | S=C(NCC1CCCO1)Nc1ccc(Cl)cc1 (stereo not drawn) | – | inconclusive [inhibitor, single point]
15 | CC(C)(C)c1cc(CCC(=O)NCC2CCCO2)cc(C(C)(C)C)c1O (stereo not drawn) | inactive: 4.08% | –
16 | Cc1ccc2c(c1)C(=C(C#N)C#N)C(=O)N2CCN1CCCCC1 | inactive: -7.71% | –
17 | O=C(N/N=C/c1ccc(OCCCF)cc1)c1cc(OCC(F)(F)F)ccc1OCC(F)(F)F | – | inconclusive [inhibitor, full curve, poor fit]
18 | Cc1cc(NC(=O)CSc2nnc(-c3c[nH]c4ccccc34)n2-c2ccc(Cl)cc2)no1 | – | inconclusive [inhibitor, single point]
19 | O=C(CCc1ccccc1)NNC(=O)c1cccc(F)c1 | inactive: -12% | –
20 | CCOC(=O)N1CCN(C(=O)CCCn2nc(C)c3sc4ccccc4c3c2=O)CC1 | inactive: -5.09% | –
21 | CCOc1ccc(C(=O)Nc2nnc(C3=COCCO3)o2)cc1 | – | active: 1 µM
22 | Cc1nn(-c2ccccc2)c(N2CCCC2)c1/C=N/Nc1ccc(S(N)(=O)=O)cc1[N+](=O)[O-] | – | inconclusive [activator, single point]
23 | Cc1sc2ncnc(NC3CCN(Cc4ccccc4)CC3)c2c1C | – | active: 15.8 µM
24 | O=C(N/N=C/c1c(O)ccc2ccccc12)c1[nH]ncc1Br | – | active: 4.47 µM
25 | COc1ccc(/C=C2/SC(=S)N(CCC(=O)O)C2=O)cc1 | – | inconclusive [inhibitor, partial curve]
26 | COc1ccc(S(=O)(=O)Nc2ccccc2SC)cc1C | – | inconclusive [inhibitor, single point]

Row | SMILES | activity, negative = inhibition | Potency
27 | S=C(Nc1ccc(Cl)cc1)c1nc2ccccc2s1 | – | active: 1.41 µM
28 | C/C(=N/N=C1/NC(=O)CC(C(=O)Nc2ccccc2)S1)c1cccs1 (stereo not drawn) | – | inconclusive [inhibitor, single point]
29 | CN(C)CCCNc1oc(-c2ccc(Cl)cc2)nc1C#N | inactive: 2.24% | –
30 | Cc1cc(C=C2C(=O)c3ccccc3C2=O)c(C)n1-c1ccc(Cl)cc1 | – | inconclusive [activator, single point]
31 | Cc1cccc(NC(=S)NCCN2CCOCC2)c1 | – | inconclusive [activator, single point]
32 | Cc1cc(O)c2ccccc2c1O | – | inconclusive [inhibitor, single point]
33 | C/C(CCC(=O)OC[C@@H]1O[C@H](C#Cc2ccccc2)C=C[C@@H]1Oc1ccc(C)cc1)=N/O[C@@H](C)c1cn([C@H]2COC[C@H]2O)nn1 | inactive: 1.49% [at 10 µM] | –
34 | C=C1C(=O)OC2C=C(C)CCC=C(C)CCC12 (stereo not drawn) | – | inconclusive [inhibitor, single point]
35 | O=C(Nc1ccc(Oc2ccc(C(F)(F)F)cn2)c(Cl)c1)C1CC1 | – | inconclusive [inhibitor, single point]
36 | Cc1ccc(NC(=O)NC(=O)c2cnccc2C(F)(F)F)c(C)c1 | inactive: 4.99% | –
37 | S=C(NCCc1ccncc1)Nc1cccc2ccccc12 | – | inconclusive [inhibitor, partial curve, poor fit]
38 | Cc1cccc(-n2ncc3c2CCCC3NC(=O)c2ccc[n+]([O-])c2)c1C (stereo not drawn) | – | inconclusive [inhibitor, single point]
39 | COC(=O)Nc1ccc(S(=O)(=O)Nc2cccc3ccccc23)cc1 | – | active: 17.8 µM
40 | Cc1c(OCC(=O)NCCCn2ccnc2)ccc2c3c(c(=O)oc12)CCC3 | inactive: -1.39% | –
41 | COc1ccc(-c2nc(=S)[nH][nH]2)cc1 | – | inconclusive [inhibitor, single point]
42 | O=C(C1CCCN(S(=O)(=O)c2ccc(Br)cc2)C1)N1CCN(Cc2ccccc2)CC1 (stereo not drawn) | – | inconclusive [inhibitor, single point]
43 | COCCNC(=S)N/N=C(\C)c1ccccc1F | – | active: 20 µM
44 | COc1ccc(OC)c(NC(=O)Cc2nn(C)c(=O)c3ccccc23)c1 | inactive: -4.07% | –
45 | O=C(Nc1cccc([N+](=O)[O-])c1)N1CCN(c2ccccc2)CC1 | inactive: -28.6% | –
46 | NCCOB(c1ccccc1)c1ccccc1 | – | inconclusive [inhibitor, single point]
47 | CN(C)Cc1cc(O)c(CN(C)C)cc1O | inactive: -0.791% | –
48 | CC(C)(C)C1CCC(=NNC(=O)CN(c2ccccc2)S(C)(=O)=O)CC1 (stereo not drawn) | inactive: 1.99% | –
49 | COc1ccc(C(=O)NC(=S)Nc2ccc(CN3CCOCC3)cc2)cc1 | – | inconclusive [inhibitor, single point]
50 | O=C(C/C(=N\NC(=O)c1ccccc1Br)C(F)(F)F)c1cccs1 | – | inconclusive [inhibitor, single point]
51 | O=C1C(=O)N(CCCn2ccnc2)C(c2cccc(Br)c2)/C1=C(\O)c1ccc2c(c1)OCCO2 (stereo not drawn) | inactive: 4.56% | –
52 | Cc1sc2nc(CSc3ncn[nH]3)[nH]c(=O)c2c1C | inactive: 0.665% | –

Row | SMILES | activity, negative = inhibition | Potency
53 | Cc1csc(/C(C#N)=N/O)n1 | – | inconclusive [inhibitor, partial curve, poor fit]
54 | CCC1CCCCN1C(=S)NC(=O)c1cccs1 (stereo not drawn) | – | active: 1.12 µM
55 | CCCC(=O)NC(=S)Nc1cccc(C(C)=O)c1 | – | inconclusive [inhibitor, single point]
56 | Cc1nc2ccccc2c2nc(NC(=O)Cc3ccccc3)nn12 | inactive: -9.94% | –
57 | COc1ccccc1-c1cc2ccccc2[nH]1 | – | inconclusive [activator, single point]
58 | O=C(NCCc1ccc(Cl)cc1)C1CCCN1C(=O)Nc1ccccc1 (stereo not drawn) | inactive: -12.6% | –
59 | CC(C)NC(=O)c1c(O)c2cccc3c2n(c1=O)CCC3 | – | inconclusive [activator, single point]
60 | N/C(=N\OC(=O)c1ccccc1Cl)c1cccc([N+](=O)[O-])c1 | – | inconclusive [inhibitor, single point]
61 | CCOC(=O)C(=O)Cc1nc2ccccc2s1 | – | inconclusive [inhibitor, single point]
62 | CCOC(=O)C1(Cc2ccc(OC)cc2)CCN(C(=O)c2cc(C)nn2C)CC1 | – | inconclusive [inhibitor, single point]
63 | CNC(=O)NC(=O)CSc1cccc(C(F)(F)F)c1 | inactive: 3.71% | –
64 | C=CCC(NCc1ccccc1)c1ccc(Cl)cc1 (stereo not drawn) | – | inconclusive [inhibitor, single point]
65 | CC1CC(C)(C)NC(=S)N1CCC(=O)N1CCc2ccccc21 (stereo not drawn) | – | inconclusive [inhibitor, single point]
66 | CCOc1ccccc1CNC(=O)C1CCN(c2nnc(C)c3c(C)n(-c4ccc(C)cc4)nc23)CC1 | – | active: 17.8 µM
67 | CC(=O)NCc1ccc(C(=O)CCl)s1 | – | active: 7.08 µM
68 | COCCC(=O)N1CCC(Oc2ccc(C(=O)N(C)C3CCCCC3)cc2)CC1 | inactive: 15.4% | –
69 | Clc1ccccc1CN(Cc1ccccc1)C(c1cccs1)c1nnnn1C1CCCC1 (stereo not drawn) | – | inconclusive [inhibitor, single point]
70 | COc1cccc(/C=N/Nc2nc3ccccc3[nH]2)c1O | – | active: 2.24 µM
71 | COc1ccc([C@]23Cc4ccccc4C(O2)c2c(c4ccc(OC)cc4oc2=O)O3)cc1 | – | inconclusive [inhibitor, single point]
72 | O=C1N=C(N2CCC(Cc3ccccc3)CC2)S/C1=C/c1cn[nH]c1-c1ccccc1 | inactive: -10.1% | –
73 | O=C(Nc1ccc(NC(=O)c2ccccc2F)cc1)c1ccccc1F | inactive: -2.15% | –
74 | CC1(C)CC(=O)C2=C(C1)OC(N)=C(C#N)C2c1cn(-c2ccccc2)nc1-c1ccc(F)cc1 (stereo not drawn) | – | inconclusive [activator, single point]
75 | Cc1cc2n(n1)SC(Nc1ccc(F)cc1)N2 (stereo not drawn) | – | inconclusive [inhibitor, single point]
76 | Cc1cc(NC(=O)Cc2ccccc2[N+](=O)[O-])no1 | inactive: -5.55% | –
77 | CC(=O)c1cccc(NC(=O)c2ccc3c(c2)CCCC3)c1 | – | active: 2.82 µM
78 | Cc1ccc(NC(=O)C(c2ccccc2)c2ccccc2)nc1 | inactive: 4.41% | –
